Measurements from PMC4336329 (PLoS ONE, 2015).
Hit rate of the full screen: of about 310,000 compounds, about 14,000 (4.5%) showed an effect of 50% or more. The effect is printed as a negative number. The list shows a part of the results.

molecular target: human ether-à-go-go-related gene (hERG) potassium channel (human, UniProt Q12809); test: primary screen, population patch clamp on CHO cells stably expressing hERG
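Further: peak tail current of the secondary pulse compared with the same well before compound.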

Sequence of human ether-à-go-go-related gene (hERG) potassium channel (Q12809 whole entry, looked up): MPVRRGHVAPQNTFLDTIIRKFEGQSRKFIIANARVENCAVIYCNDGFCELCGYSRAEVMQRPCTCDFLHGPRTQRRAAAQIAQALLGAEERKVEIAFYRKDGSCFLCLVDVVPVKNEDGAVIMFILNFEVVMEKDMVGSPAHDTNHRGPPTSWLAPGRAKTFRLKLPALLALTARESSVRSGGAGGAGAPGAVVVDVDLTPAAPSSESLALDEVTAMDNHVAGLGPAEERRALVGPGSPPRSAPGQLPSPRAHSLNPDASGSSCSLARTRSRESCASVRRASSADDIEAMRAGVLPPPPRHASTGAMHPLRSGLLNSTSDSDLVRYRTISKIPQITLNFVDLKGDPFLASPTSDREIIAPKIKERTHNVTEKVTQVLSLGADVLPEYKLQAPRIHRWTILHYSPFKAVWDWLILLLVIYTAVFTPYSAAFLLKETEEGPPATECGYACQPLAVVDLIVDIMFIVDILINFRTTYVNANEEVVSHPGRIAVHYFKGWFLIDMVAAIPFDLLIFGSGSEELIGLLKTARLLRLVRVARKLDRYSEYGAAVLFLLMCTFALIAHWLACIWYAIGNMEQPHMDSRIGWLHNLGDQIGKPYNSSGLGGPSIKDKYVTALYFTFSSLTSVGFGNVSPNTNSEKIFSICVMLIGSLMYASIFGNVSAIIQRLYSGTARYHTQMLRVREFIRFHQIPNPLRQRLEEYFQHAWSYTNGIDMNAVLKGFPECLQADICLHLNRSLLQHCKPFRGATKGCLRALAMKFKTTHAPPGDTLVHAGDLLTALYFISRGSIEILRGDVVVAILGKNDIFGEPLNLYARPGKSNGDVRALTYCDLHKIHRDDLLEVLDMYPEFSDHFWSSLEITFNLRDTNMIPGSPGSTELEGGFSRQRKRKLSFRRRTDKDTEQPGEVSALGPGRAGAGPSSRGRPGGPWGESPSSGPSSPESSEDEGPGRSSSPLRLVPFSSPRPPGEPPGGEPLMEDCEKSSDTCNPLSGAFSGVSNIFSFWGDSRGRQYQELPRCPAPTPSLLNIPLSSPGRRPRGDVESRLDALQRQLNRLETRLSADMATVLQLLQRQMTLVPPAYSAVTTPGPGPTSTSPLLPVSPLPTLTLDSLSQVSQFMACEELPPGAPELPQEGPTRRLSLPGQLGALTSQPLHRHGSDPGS

| SMILES | hERG current change (%, negative = inhibition) at 10uM |
| --- | --- |
| COc1cc(OC)c(-c2nnc3n(CCc4ccccc4)c(=O)c4ccccc4n23)cc1OC | -5.63% |
| COc1ccc(Cc2n[nH]c(=S)n2N)cc1OC | 15.9% |
| CCc1ccc(OCC(=O)NC(=S)Nc2ccc(Br)c(C)n2)cc1 | 14.6% |
| O=C(CSc1ccc(-c2cccnc2)nn1)Nc1ccccc1F | -38.6% |
| Cc1ccc(S(=O)(=O)N(CC(=O)N=Nc2c(O)[nH]c3ccccc23)c2cccc(C)c2)cc1 | -10.7% |
| CCC(=O)Nc1ccccc1N1CCN(c2ccc(F)cc2)CC1 | 19.9% |
| CC1CC(C)CN(C2CCN(Cc3cccnc3)CC2)C1.O=C(O)C(=O)O (stereo not drawn) | 7.94% |
| Cc1cc(C(=O)COC(=O)CCc2nc3ccccc3c(=O)[nH]2)c(C)n1CC1CCCO1 (stereo not drawn) | 30% |
| CC(=O)Nc1ccc(Cc2ccc3[nH]c(=O)cc(C)c3c2)cc1 | 9.5% |
| Cc1ccc(S(=O)(=O)N(CC(O)CN2CCCCC2)c2ccccc2)cc1.Cl (stereo not drawn) | -67.9% |
| O=C(COC(=O)CCOc1ccccc1)NCCc1ccccc1 | 12% |
| Cc1cc(-c2nn(C)c(=O)c3ccccc23)ccc1CNC(=O)NC1CCCCC1 | -31.4% |
| O=c1nc(NC2CCCC2)ccn1Cc1cccc(Br)c1 | -33.9% |
| C=CCn1c(CSc2ccccc2[N+](=O)[O-])n[nH]c1=S | 22% |
| COc1ccc(Cl)cc1NC(=S)NC1CCCC1 | 11.4% |
| CCOC(=O)c1[nH]c(C)c(/C(O)=C2\C(=O)C(=O)N(CCCN3CCOCC3)C2c2cccs2)c1C (stereo not drawn) | -2.66% |
| CCc1nn(C(C)C(=O)N2CCN(Cc3ccccc3)CC2)c(=O)c2cc3occc3n12 (stereo not drawn) | -20.8% |
| CCOC(=O)C1(CCc2ccccc2)CCN(C(=O)C(C)n2cncn2)CC1 (stereo not drawn) | -14.3% |
| Cc1cc(C)n(CCNC(=O)c2cc(COc3c(F)cccc3F)on2)n1 | 8.35% |
| Cc1ccc(C(=O)OCc2cn(-c3ccccc3)nn2)cc1 | -7.92% |
| Cc1cccc(Cn2c(N(C)Cc3ccccc3)nc3c2c(=O)[nH]c(=O)n3C)c1 | -9.99% |
| CC1CCCCC12NC(=O)N(CC(=O)N1CCN(S(=O)(=O)/C=C/c3ccccc3)CC1)C2=O (stereo not drawn) | -8.17% |

| SMILES | hERG current change (%, negative = inhibition) at 10uM |
| --- | --- |
| COC(=O)C(C)Oc1cc(C)ccc1COc1ccc(-n2nc(C)n(C(F)F)c2=O)cc1 (stereo not drawn) | -8.93% |
| COc1ccc(NC(=O)CSCC(=O)Nc2cccc3ncccc23)cc1 | 16.4% |
| CCOC(=O)Cn1nc(-c2ccc(F)cc2)cc(Cc2ccccc2)c1=O | -12.2% |
| COc1cc2c(cc1OC)CN(C(=O)CNS(=O)(=O)c1ccc(C)c(C)c1)CC2 | 6.84% |
| COc1ccc(Cc2nc3ccc(C(=O)N(C)Cc4nccs4)cc3o2)cc1OC | 15.3% |
| O=C(Cn1cc2c(n1)CCCC2)N1CCCC1 | 5.98% |
| CCCCCC(=O)Nc1ccc(C(=O)COC(=O)c2ccccn2)cc1 | 10.5% |
| Cc1ccc(S(=O)(=O)N2CCN(C(=O)CN3CCOCC3)C2c2ccccc2)cc1 (stereo not drawn) | 4.55% |
| CCN(Cc1ccccc1)C(=O)c1ccc(SC)cc1OC | 4.25% |
| Cc1cc(F)ccc1S(=O)(=O)N1CCCOC1CNC(=O)C(=O)NC1CCCC1 (stereo not drawn) | -7.66% |
| C[C@@H](NC(=O)c1nc[nH]c1C(=O)NCc1ccccc1)c1ccccc1 | 9.81% |
| CC(=O)c1ccc(N2CCN(C(=O)c3cccc(Oc4ccccc4)c3)CC2)cc1 | -42.1% |
| O=C(CCN1CCCCC1)NCC(=O)Nc1ccc(Br)cc1C(=O)c1ccccc1 | -77.6% |
| O=C(c1cc(-c2ccc(Cl)cc2Cl)on1)N1CCCC1 | -0.203% |
| NC(=O)c1ccc(C(=O)N/N=C/c2cccc(Oc3ccccc3)c2)cc1 | 1.42% |
| CNC(=S)NNC(=O)c1ccccc1F | 11.4% |
| CC(C)c1ccc(/C=C(\NC(=O)c2ccccc2)C(=O)NCCCN2CCOCC2)cc1 | -71.4% |
| CC(C)[C@H](NC(=O)N1C[C@H]2C[C@@H](C1)c1cccc(=O)n1C2)C(=O)Nc1ccccc1F | 13.5% |
| O=S1(=O)CCOC[C@H](Cc2ccccc2)N1Cc1ccc(F)cc1 | -32.9% |
| Cc1nc(SCc2cccc(Oc3ccccc3)c2)n[nH]1 | -21.5% |
| CCCCCN(C(=O)COC(=O)c1ccc(C)cc1)c1c(N)n(CCCC)c(=O)[nH]c1=O | -4.65% |
| Cc1ccccc1-n1c(=O)c(C#N)cc2c(=O)n3ccccc3nc21 | -25.4% |

| SMILES | hERG current change (%, negative = inhibition) at 10uM |
| --- | --- |
| CC(=O)Nc1ccc(Oc2ccc(NC(C)=O)c(NC(C)=O)c2)cc1 | 1.5% |
| Cc1cccn2c(=O)nc(SCC(=O)Nc3ccc4c(c3)OCCO4)nc12 | -11.2% |
| CN(CCC1CCOCC1)C(=O)C1CCC(=O)N(CCc2cccc(F)c2)C1 (stereo not drawn) | 12% |
| Cc1ccc(CCN2CC(C(=O)NC3CCCCC3)CC2=O)cc1 (stereo not drawn) | -12.9% |
| CCc1c(C)[nH]n(-c2ccc(Oc3ccccc3)c(S(=O)(=O)O)c2)c1=O | 20.5% |
| O=C(NC1CC1)c1cccc(S(=O)(=O)Nc2ccccc2F)c1 | 0.0966% |
| Cc1ccc2cc(CCNC(=O)Cc3cccs3)c(=O)[nH]c2c1 | -8.14% |
| Cc1cccnc1NC(=O)c1ccc(OCC2CCCO2)cc1 (stereo not drawn) | 15.9% |
| C/C=C\C(=O)Nc1cccc(C2=NOC3(C2)C[C@H](C(N)=O)N(C(=O)/C=C/CC)C3)c1 (stereo partly drawn) | 12.7% |
| CC(C)c1ccc(NC(=O)CCNC(=O)N2CC(=O)Nc3ccccc32)cc1 | 14.5% |
| O=C(c1ccncc1)N1N=C(C2CC2)CC1(O)C(F)(F)F (stereo not drawn) | 6.56% |
| Nc1nc2ccccc2n1CCOc1ccccc1Cl | -3.5% |
| O=C(CSc1ccc(F)cc1)NC12CC3CC(CC(C3)C1)C2 | -1.29% |
| Cn1c(SC2CCCCC2=O)nnc1-c1ccccc1F (stereo not drawn) | 9.45% |
| NC(=O)C1CCN(C(=O)c2ccc(-c3ccccc3)cc2)CC1 | 1.72% |
| Cc1nn(-c2ccccc2)c(N)c1N=O | 15.4% |
| COc1ccc(-c2c(C)nn3c(C)cc(C)nc23)cc1 | 5.87% |
| CCCNC(=O)c1ccc(N2CCC3(CC2)CC(c2ccccc2)=NO3)c(NC(=O)c2ccc(Br)cc2)c1 | -1.91% |
| COc1ccc(Cc2nnc(SCC(=O)N3CCCCC3)o2)cc1 | 3.78% |
| CCCNC(=O)NC(C)C12CC3CC(CC(C3)C1)C2 (stereo not drawn) | -12.6% |
| Nc1nc(SCC(=O)Nc2ccc(S(N)(=O)=O)cc2)n[nH]1 | 17.8% |
| c1ccc2nc(N3CCN(Cc4ccc5c(c4)OCO5)CC3)cnc2c1 | -28.5% |

| SMILES | hERG current change (%, negative = inhibition) at 10uM |
| --- | --- |
| CN1C(=O)C(C)(C)c2cc(S(=O)(=O)N3CCN(c4ccccc4F)CC3)ccc21 | -3.03% |
| Cc1ccc(S(=O)(=O)CCc2nc3ccccc3n2CCC#N)cc1 | -5.05% |
| Cc1nc2scc(C)n2c(=O)c1S(=O)(=O)Nc1ccc(F)cc1 | -22.8% |
| CC(C)(C)OC(=O)N1CCC(Cc2cc(-c3cccc(Br)c3)no2)(C(=O)O)CC1 | -23.5% |
| Cc1ccc(NNC(=O)c2c(C)noc2C)cc1Cl | -1.34% |
| COc1ccc(-c2nc(CNS(=O)(=O)c3ccc(OC)c(OC)c3)cs2)cc1 | -1.76% |
| Cc1ccc(CNC(=O)C2(C(F)(F)F)C/C(=C\Cc3ccccc3)CCCO2)o1 (stereo not drawn) | 11.8% |
| O=C(CCCCn1c(=O)c2ccccc2n(CC(=O)Nc2ccc(F)cc2)c1=O)NCc1ccco1 | -19.7% |
| CN(C)c1ccc(N/C(=N\S(=O)(=O)c2cccs2)c2ccccc2)cc1.Cl | -30.5% |
| N#Cc1c(-c2ccc(Cl)cc2)cc(-c2ccccc2)nc1SCC(=O)O | 15.3% |
| Cc1cc(Nc2nnnn2-c2ccccc2)n(-c2ccc(Cl)cc2)n1 | 19.3% |
| CC(C)Sc1nnc(CNC(=O)C23CC4CC(CC(C4)C2)C3)n1C1CCCCC1 | -9.93% |
| COc1cc(/C=N/NC(=O)CN2CCCCC2)ccc1OCc1ccccc1 | -64.1% |
| Cc1ccc(C)c(-n2c(=O)c(C#N)cc3c(=O)n4ccccc4nc32)c1 | 30.5% |
| COc1cc(C)nc(N(C)C(C)=O)n1 | 4.82% |
| O=C(CSc1ccccc1F)Nc1ccc(N2CCOCC2)cc1 | 3.82% |
| Cc1[nH]ccc(=O)c1OCc1c(Cl)cccc1Cl | 10.5% |
| CN(C)CCN(C(=O)c1ccc2ccccc2c1)c1nc2c(F)cc(F)cc2s1.Cl | 3.41% |
| COc1ccccc1NC(=O)c1nnn(Cc2ccccc2)c1NC(=O)C(F)(F)F | -53% |
| Cc1ccc(OCC(=O)NCc2ccccc2)c([N+](=O)[O-])n1 | -15% |
| CCNC(=O)COC(=O)c1cc(S(=O)(=O)N2CCCCC2)ccc1C | -4.25% |
